# Results: patent US12460006B2, “Antibodies against integrin alpha 11 beta 1” (Momenta Pharmaceuticals, Inc., priority 2019, dated 2025)
# T1: α11β1 expressed on the surface of CHO-K1 cells (Homo sapiens, UniProt Q9UKX5)
# T1 construct: expressed in transfected cells; host or cells: CHO-K1
# T1 sequence (Q9UKX5 23-1188): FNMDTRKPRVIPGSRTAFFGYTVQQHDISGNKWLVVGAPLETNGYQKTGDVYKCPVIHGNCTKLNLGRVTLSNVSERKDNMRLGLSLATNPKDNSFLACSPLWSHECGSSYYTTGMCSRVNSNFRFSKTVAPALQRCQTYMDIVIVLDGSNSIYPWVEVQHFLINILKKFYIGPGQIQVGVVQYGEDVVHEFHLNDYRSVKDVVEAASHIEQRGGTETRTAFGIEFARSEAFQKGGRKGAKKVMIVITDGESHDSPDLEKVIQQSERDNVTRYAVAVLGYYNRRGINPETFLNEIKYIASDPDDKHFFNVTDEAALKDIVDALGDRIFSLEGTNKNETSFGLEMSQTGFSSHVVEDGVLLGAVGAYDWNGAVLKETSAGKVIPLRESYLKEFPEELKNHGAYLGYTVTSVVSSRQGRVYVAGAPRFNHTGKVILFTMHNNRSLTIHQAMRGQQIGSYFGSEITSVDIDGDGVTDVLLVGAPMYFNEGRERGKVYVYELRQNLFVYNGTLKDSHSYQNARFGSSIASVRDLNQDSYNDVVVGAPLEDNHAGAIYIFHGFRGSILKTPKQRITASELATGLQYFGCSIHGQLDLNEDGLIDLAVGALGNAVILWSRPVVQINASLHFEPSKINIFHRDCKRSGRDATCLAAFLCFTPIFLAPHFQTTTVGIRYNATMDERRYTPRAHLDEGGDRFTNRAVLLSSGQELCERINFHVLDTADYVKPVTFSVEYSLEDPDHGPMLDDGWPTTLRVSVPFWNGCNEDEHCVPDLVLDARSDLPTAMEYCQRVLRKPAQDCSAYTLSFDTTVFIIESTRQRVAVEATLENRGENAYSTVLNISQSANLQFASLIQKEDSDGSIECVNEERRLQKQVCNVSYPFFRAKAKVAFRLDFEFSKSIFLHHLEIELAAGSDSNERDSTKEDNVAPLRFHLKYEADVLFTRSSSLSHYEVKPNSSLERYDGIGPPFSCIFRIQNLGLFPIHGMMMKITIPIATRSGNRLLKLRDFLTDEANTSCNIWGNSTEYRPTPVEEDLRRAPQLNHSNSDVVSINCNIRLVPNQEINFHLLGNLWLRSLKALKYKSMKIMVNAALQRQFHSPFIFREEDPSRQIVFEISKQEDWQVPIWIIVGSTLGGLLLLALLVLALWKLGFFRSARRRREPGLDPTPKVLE
# Biological target: T1, α11β1 expressed on the surface of CHO-K1 cells
# Assay: FACS antibody binding to CHO-K1 cells expressing human α11
# Conditions: for CHO-K1 FACS: binding Yes/No
# Protocol: 200,000 cells (wild-type CHO-K1 cells or CHO-K1 cells expressing human α11) were incubated with each antibody at desired concentrations in FACS buffer for 30 min at 4° C. Then, the cells were washed with FACS buffer and incubated with secondary antibody at 1:100 dilution for 30 minutes at 4° C. Cells were then washed and fixed with 1% PFA in PBS for 20 minutes at room temperature; washed again and read on a cytometer in FACS buffer.
# Since integrins are large, transmembrane receptors that exist in different conformational shapes, experiments were performed to confirm that the novel antibodies also bound cell-expressed α11β1. A CHO-K1 cell line that endogenously expressed high levels of the β1 subunit was engineered to stably express human α11 (CHO-K1 hu α11).
# Binding EC50 was estimated using data from Fluorescence-activated cell sorting (FACS) performed with CHO-K1 hu α11β1 cells.
Molecule,CHO-K1 binding EC50 (in words) (FACS),CHO-K1 FACS
"8-G15: mouse anti-α11β1 mAb; VH SEQ ID NO: 107, VL SEQ ID NO: 108 (antibody, V domains shown) VH: EVQLQQSGPELVKPGASVRISCKASGYTFTDYYIHWVKQKPGQGLECIGEIYPGTDNTYYSKKFRGKATLTADKSSDTAYMQLSSLTSEDSAVYFCARGDYYRGYFDVWGAGTTVTVSS VL: DVVMTQTSLTLSVTIGQPASISCKSSQSLLHSNGKTYLNWLLQRPGQSPKFLIYLVSKLESGVPDRFSGSGSGTDFTLKISRVEAEDLGVYYCLQSTHFPWTFGGGTKLEIK",low nanomolar range,Yes
"2-A3: mouse anti-α11β1 mAb; VH SEQ ID NO: 131, VL SEQ ID NO: 132 (antibody, V domains shown) VH: EVQLQQSGPELVKPGASVKMSCKASGYTFTDYYMMWVKQSHGKSLEWIGDINPYNGGSSYNPKFKGRATLTVDKSSSTAYMQLNSLTSEDSAVYYCARGTYWGQGTLVTVSA VL: DVVMTQTPLTLSVTIGQPASISCKSSQSLLDSAGKTYLNWLLQRPGQSPKRLMYLVSKLDSGVPDRFTGSGSGTDFTLKISRVEAEDLGVYYCWQGTHFPYTFGGGTKLEIK",–,No
"7-O8: mouse anti-α11β1 mAb; VH SEQ ID NO: 143, VL SEQ ID NO: 144 (antibody, V domains shown) VH: EVQLQQSGPELVKPGASVKMSCKASGYTFTDYYIHWVKQKPGQGLEYIGEIYPGSGNTYYNGKFRGKATLTADKSSSTAYMQLSSLTSEDSAVYFCGSGYFDYWGQGTTLTVSS VL: DVVMTQTPLTLSVTIGQPASISCKSSQSLLYSNGKTYLNWLLQSPGQSPKLLIYLVSKLESGVPDRFSGSGSGTDFTLKLSRVEAEDLGVYYCVQGTHFPFTFGSGTKLEIK",–,Yes
"6-P20: mouse anti-α11β1 mAb; VH SEQ ID NO: 141, VL SEQ ID NO: 142 (antibody, V domains shown) VH: EVQLQQSGPELVKPGASVKISCKASGYTFTDYYMNWVKQSHGRSLELIGDINPNNGGSNFNQKFRGKATLTVDKSSSTAYMELRSLTSEDSAIYYCARMGYWGQGTLVTVSA VL: DVVMTQTPLTLSVTIGQPASISCKSSQSLLHSDGKTYLNWMFQRPGQSPKRLIYLVSKLDSGVPYRFTGGGSGTDFTLQISRVETEDLGVYYCWQGTHFPRTFGGGTKLEIK",–,Yes

# The remaining lines, values ahead:
CHO-K1 binding EC50 (in words) (FACS),CHO-K1 FACS,Molecule
–,No,"6-A15: mouse anti-α11β1 mAb; VH SEQ ID NO: 137, VL SEQ ID NO: 138 (antibody, V domains shown) VH: EVQLQQSGPELVKPGASVKMSCKASGYTITDYYMMWLKQSHGKSLEWIGDINPYTGGTSYNQKFKGKATLTVDKSSSTAYLQLHSLTSEDSAVYYCARGAYWGQGTTLTVSS VL: DVVMTQTPLTLSVTIGQPASISCKSSQSLLDSDGKTYLNWLLQRPGQSPKRLIYLVSKLDSGVPDRFTGSGSGTDFTLKISRVEAEDLGVYYCWQGTHFPYTFGGGTKLEIK"
–,No,"10-K10: mouse anti-α11β1 mAb; VH SEQ ID NO: 139, VL SEQ ID NO: 140 (antibody, V domains shown) VH: EVQLQQSGPELVKPGASVKMSCKASGYTITDYYMMWLKQSHGKSLEWIGDINPYTGGTSYNQKFKGKATLTVDKSSSTAYMQLNSLTSEDSAVYYCARGAYWGQGTTLTVSS VL: DVVMTQTPLTLSVTIGQPASISCKSSQSLLDSDGKTYLNWLLQRPGQSPKRLIYLVSKLDSGVPDRFTGSGSGTDFTLKISRVEAEDLGVYYCWQGTHFPYTFGGGTKLEIK"
–,Yes,"6-O17: mouse anti-α11β1 mAb; VH SEQ ID NO: 133, VL SEQ ID NO: 134 (antibody, V domains shown) VH: QVQLQQPGAELVKPGASVKLSCKASGYTFTSYWMHWIKQRPGQGLEWIGEINPSNGGSNYNEKFKSKATLTVDKSSSTAYMQLSSLTSEDSAVYHCKSRGYWGQGTTLTVSS VL: DVVMTQTPLTLSVTIGQPASISCKSSQSLLDSYGKTYLNWLLQRPGQSPKRLIYLVSKLDSGVPDRFTGSGSGTDFTLKISRVEAEDLGIYYCWQGTHFPHTFGSGTKLEIK"
